B1: HuNb66-HuNb21-Fc (antibody)
chain: EVQLQESGGGLVQPGGSLRLSCAASGYTVSSNMGWFRQAPGKEREGVAAIYPDGATYYADSVKGRFTISRDNSENTLYLQMNSLRAEDTAMYYCAADLAFNGLGTLALHGYWGQGTLVTVSSGGGGSGGGGSGGGGSGGGGSEVQLQESGGGLVQPGGSLRLSCAASGYPYSGDYCMGWFRQAPGKEREGVAAFYTGGGSTYYADSVKGRFTISRDNSKNTLYLQMNSLRAEDTAVYYCAADPWSVYGGSCGVKDPNPKAFNYWGQGTLVTVSS[gap - human IgG1 Fc]
B2: HuNb21-HuNb21-Fc (antibody)
chain: EVQLQESGGGLVQPGGSLRLSCAASGYPYSGDYCMGWFRQAPGKEREGVAAFYTGGGSTYYADSVKGRFTISRDNSKNTLYLQMNSLRAEDTAVYYCAADPWSVYGGSCGVKDPNPKAFNYWGQGTLVTVSSGGGGSGGGGSGGGGSGGGGSEVQLQESGGGLVQPGGSLRLSCAASGYPYSGDYCMGWFRQAPGKEREGVAAFYTGGGSTYYADSVKGRFTISRDNSKNTLYLQMNSLRAEDTAVYYCAADPWSVYGGSCGVKDPNPKAFNYWGQGTLVTVSS[gap - human IgG1 Fc]
B3: HuNb21-HuNb66-Fc (antibody)
chain: EVQLQESGGGLVQPGGSLRLSCAASGYPYSGDYCMGWFRQAPGKEREGVAAFYTGGGSTYYADSVKGRFTISRDNSKNTLYLQMNSLRAEDTAVYYCAADPWSVYGGSCGVKDPNPKAFNYWGQGTLVTVSSGGGGSGGGGSGGGGSGGGGSEVQLQESGGGLVQPGGSLRLSCAASGYTVSSNMGWFRQAPGKEREGVAAIYPDGATYYADSVKGRFTISRDNSENTLYLQMNSLRAEDTAMYYCAADLAFNGLGTLALHGYWGQGTLVTVSS[gap - human IgG1 Fc]
B4: HuNb66-HuNb66-Fc (antibody)
chain: EVQLQESGGGLVQPGGSLRLSCAASGYTVSSNMGWFRQAPGKEREGVAAIYPDGATYYADSVKGRFTISRDNSENTLYLQMNSLRAEDTAMYYCAADLAFNGLGTLALHGYWGQGTLVTVSSGGGGSGGGGSGGGGSGGGGSEVQLQESGGGLVQPGGSLRLSCAASGYTVSSNMGWFRQAPGKEREGVAAIYPDGATYYADSVKGRFTISRDNSENTLYLQMNSLRAEDTAMYYCAADLAFNGLGTLALHGYWGQGTLVTVSS[gap - human IgG1 Fc]

Usually IC50 stands for the point on the concentration scale where inhibition reaches its midpoint.

The assay addresses human IL5 (human, UniProt P05113 20-134, biotinylated (IL5-biotin) in Examples 2, 5, 6, 9 and 11; site not stated). Briefly: flow.
Sequence of UniProt P05113 (P05113 20-134): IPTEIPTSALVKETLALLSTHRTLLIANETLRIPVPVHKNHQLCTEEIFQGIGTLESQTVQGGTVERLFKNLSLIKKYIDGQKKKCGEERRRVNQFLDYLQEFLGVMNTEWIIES
B1 showed an IC50 of 0.893 µg/mL.
With B2 the figure was 2.05 µg/mL; with B3, 0.936 µg/mL; with B4, 1.98 µg/mL.

The record behind these values is US20230399395A1 (published 2023).
